Assay results as given in the RNAGym collection of RNA variant scans (doi:10.7554/elife.90254).
The source gives no read counts; variants with many changes may rest on few reads.

B1: LINE1-mini (parent)
chain: GGCAGAGCUCAACACAGCGUGGCAAAGUGGCUGUGGCUAGACUGCC

Variants of: B1
Assay: self-cleavage, relative activity (ratio to wild type); higher = more cleavage; in vitro, sequencing; the parent is a self-cleaving ribozyme

Variant	self-cleavage
GGCAGAGAUCAACAGAGCGUGGCAAAGUGGUUGGGGCUAGACUGUC [C8A C15G C31U U34G C45U]	0.15
GGCAGAGCUCUACGCAGAGUGGCAAAGUGGCUAUGGCUAGACUGUC [A11U A14G C18A G33A C45U]	0.02
GGCAGAGCUCAACACAGCGUGGCAAAGUAGCUGUGGCUAGACGGAC [G29A U43G C45A]	0.02
GGCAGAGCUCAAGCCAGCGUGGCAAAGUGGCUGUGGCUAGCCUGCC [C13G A14C A41C]	0.08
GGCAGAGCUCAACACAACGUGGCAAAGUGGCUAUGGCUAGCCUGCC [G17A G33A A41C]	0.03
GGGAGAGCUCAACACAGCGUGGCAAAGUGGCGGUUGCUAGACUGCC [C3G U32G G35U]	0.11
GGUAGAGCUCAACACAGCGUGGCAAAGCGGGUAUGGCGACACUGCC [C3U U28C C31G G33A U38G G40C]	0.02
GGCAAAGCUCAACACCGCGUGACGAAGUGGAUGUAGCUAGACUGCC [G5A A16C G22A A24G C31A G35A]	0
AGCAGAGCUCGACCCAGCGUGGCAAAGUGGCUGUGGCUAGACUGCC [G1A A11G A14C]	0.03
GGACGAGCUCAACACAGCGUGGCAAAGUGGCCGUGGCCAGAGUGCC [C3A A4C U32C U38C C42G]	0.11
GGCAGAGCUCAACACAGCGUGGCAAAGUGGCUCUGACUCGACUGCC [G33C G36A A39C]	0.03
GGAUGAGCUCAACACAGCGUGGCAAAGUGGCUGUGGCUAGAAUGCC [C3A A4U C42A]	0.12
GGCAUAGCUCAACACAACGUGGCAAAGUGGCUGUGGCUAGAAUGCC [G5U G17A C42A]	0.03
GGCCGAGGGCAACACAGCGUGGCAAAGUGGCGUGGGCUACACUGCC [A4C C8G U9G U32G G33U U34G G40C]	0.02
GAAAGAGCUCACCACAGCGCGGCAAAGUGGCUGUGGCUAGACUGCC [G2A C3A A12C U20C]	0.07
GACAGAGCUCAACACAGCGUGGCAAAGUGGCUGUGGUUCUACUGCC [G2A C37U A39C G40U]	0.27
GGGAGAGCUCAACACUGCGUAGCAAAGUGGCUGUGGAUAGACUGCC [C3G A16U G21A C37A]	0.29
GGAAGAGCUCAACACAGCGUGGCAAAGUGACUGUGGCUAGACCACC [C3A G30A U43C G44A]	0.09
GGCAGAGCUCAACACAGCGUGGCAAAGUGGAUUUGGCUAGACUACC [C31A G33U G44A]	0.02

Variant	self-cleavage
GGCAGAGCGGUACACGGCGUGGCAAAGUGGCUGUGGCUGGACUACC [U9G C10G A11U A16G A39G G44A]	0.01
GCCAGAGCUCAACAUAGCGUGGCAAAGUGGCUGUGGGUAGGGUGCC [G2C C15U C37G A41G C42G]	0.02
GGCGGAGCUCAACACAGCGUCGUAAAGUGGGCGUGGCUAGACUGCC [A4G G21C C23U C31G U32C]	0.18
GGCAGAGAUCAACACAGCGUGGCAAAGUGGCUGUGGAGAGACUGCC [C8A C37A U38G]	0.03
GGCAGAGCUAAACACAGCGUGGCAAAGUGGCAGUGGCUACACGGCC [C10A U32A G40C U43G]	0.03
GGCAGAGCUUAACACAGCGUGUUAAAGUGGCUGUGGCUAGACUGCC [C10U G22U C23U]	0.24
GGCAGAUCUAAACACUGCGUGGCAAAGUGGCGGUGGCUAGACUGCC [G7U C10A A16U U32G]	0.01
AGCAGAGCACAACACAGCGUGGCAAAGUGGCGGUGGCUAGAAUGCU [G1A U9A U32G C42A C46U]	0.21
AGCAGAGCUCAACACAGCGGGGCAAAGUGGGUGUGGGGAUACUGCC [G1A U20G C31G C37G U38G G40U]	0.04
GGCAGAGCUCAACACAGCGUGGCAAAGUGGCUGUGGCUAAUCUGCA [G40A A41U C46A]	0.19
GGGAGAGCUGAGCACAGCGUGGCAAGGUGGCUGUGGCUAGACUGAC [C3G C10G A12G A26G C45A]	0.01
CGCAGAGCUCAACACAGAGUGGCUAAGUGCCUGUGGUUAUACUGCC [G1C C18A A24U G30C C37U G40U]	0.02
UGCAGAGCGCGAGACAGAGUGGCAAAGUGGCUGUCGCUAGCCUGCC [G1U U9G A11G C13G C18A G35C A41C]	0
GGCAGAGCUCAAUACAGGGUGGCAAAGUGGUUGUGGCUAGAGUGCC [C13U C18G C31U C42G]	0.02
AGCAGAGGUCAACAAAUCGUGGCAAAGUGGCUGUGGCUAGACUGCC [G1A C8G C15A G17U]	0.15
GGCAGAGCUGCACACAGCGUGGCAAUCUGGCUGUGGCUAGUCUGCC [C10G A11C A26U G27C A41U]	0.01
GGCUGAGCUCAACACAGCGUGGCAAAGUGGCUGUUGAUAGACUGCC [A4U G35U C37A]	0.07
GGCAGAGCUCAACACAGCGUGGGAGAGUGGCUGUGGCUAGACUGGC [C23G A25G C45G]	0.11
GGCAGCGCUCAACAUGGCGUGGCAAGGUGGCUAUGGCUAGAGUGCC [A6C C15U A16G A26G G33A C42G]	0.06

Variant	self-cleavage
GCCAGAGCUCAACCCAUCGUGGCUAAGAGGCCGUGUAUAGACUGCC [G2C A14C G17U A24U U28A U32C G36U C37A]	0.03
GGCAUAGCUCAAAAUAGCGUGGCUAAGUGGCUGUGGCUAGACUGCC [G5U C13A C15U A24U]	0.45
GGCAGAGCUUAACAAAGCAUGGCAAAGUGACCGUGUCUAGACUGCC [C10U C15A G19A G30A U32C G36U]	0.06
GGCAGAUCUCAACACAGCGUGGCAACGUGGCUGUGGCUAGACGGCA [G7U A26C U43G C46A]	0.07
GGCAGAGCUCAACACAGCGUGGCAAAGUGUCGGAGGCUAUACUGCC [G30U U32G U34A G40U]	0.01
UGCAGAGCUCAACAAAGCGAGGCGAGGUGGCUGUGGCUAGACUGCC [G1U C15A U20A A24G A26G]	0.13
GGCGGAGCACAACACAGCGUGGCAAAGUGACUGUGGCUAGACUCCC [A4G U9A G30A G44C]	0.05
GGAAGAGCUCAAGACAGCUUGGCAAAGUGACUGUGGCUAGACUGCG [C3A C13G G19U G30A C46G]	0.05
GGCAGAGCUCAACACAGCGUGGCAAAGUGACAGUUGCUAGACUGCC [G30A U32A G35U]	0.02
GGCAGAGCUCAACACAGCGCGGCAAAGUGGCUGGGGGUAGACUGCC [U20C U34G C37G]	0.03
GGCAGAGCUCAACACAGCGUGGCUAAGCGGCUGUGGCCAGACUCCC [A24U U28C U38C G44C]	0.23
GGCAGAGGUCAACACAGCGUGGCAAAGUGGCUGUGGUUAUACUGCC [C8G C37U G40U]	0.01
GGCAGAGAUCAACCCAGCGUGGCAAAGUGGCUAUGGCUAGACUGCC [C8A A14C G33A]	0.12
GGCUGAGCUCAACACAGAGUGGCAAAGUGGCUGUGGCCAGACUGCC [A4U C18A U38C]	0.09
GGCAGAGAUCAACACAGCGUGGCAUAGUGGCUGUUGCUAGACUGCU [C8A A25U G35U C46U]	0.04
AGCAGAGCUCAAUCCAGCGUGGCAAAGUGGCUGUGGCUAGACUGCC [G1A C13U A14C]	0.07
GGCAGAGCUCACCACACCGUGGCAAAGUGUCUGUAGCUAGACUGCC [A12C G17C G30U G35A]	0.02
GGCAGAACUGAACACAGCGUGGUAAAGUGGCUGUGGCUAGACUGCC [G7A C10G C23U]	0.03
